Our source for the binding signal (log2 normalized fluorescence) values is publication PMC5515408.

Some of the results follow. At the low end of the ranking, values are background and their order means little.

This assay has as its system MYC (p64) + MAX (p21), in MYC:MAX. In words: protein-binding microarray (anti-MAX antibody). The settings on record: PBM: 15 mM Tris-HCl pH 7.5, 100 mM KCl, 0.075% NP40, 7.5 mM beta-mercaptoethanol, 375 ng/ul BSA, 8 ng/ul poly(dA-dT):(dA-dT), 550 ng complex, 60 min, room …; high values mean tight binding; double strand, one strand shown; sequences stand for … in CCGGC…TTAATAGCTAAGATTACTATATCGACG
With TGACCCCGTGTA, the binding signal (log2 normalized fluorescence) came out at 0.42. Take TGACACGTGGTC: the binding signal (log2 normalized fluorescence) was determined as 1.02. Consider TGACACTTTGTC, for which the binding signal (log2 normalized fluorescence) stood at 0.152. The value for TGAGAATTAGTA was -0.155; that for TGATATAGTGTA was 0.0483; that for TGATTGCCTGTA was 0.0735.

Turning to TGAGGCGGGGTA, the binding signal (log2 normalized fluorescence) stood at 0.411. Regarding TGACTGGCTGTA, the binding signal (log2 normalized fluorescence) is 0.0819. TGACCGAATGTA: the binding signal (log2 normalized fluorescence) is 0.333. The value for TGATGACATGTA was 0.414; that for TGAGCTGCGGTA was -0.028; that for TGATAATCAGTA was 0.0796. The value for TTACACCAGGTA was 0.388; that for TGAGATTCTGTA was -0.0451.

In the case of TGAGTAGGAGTA, the binding signal (log2 normalized fluorescence) was -0.186.

As for TGACACGTAAAA, the binding signal (log2 normalized fluorescence) worked out at 0.384. In the case of TAACTCGTTGTA, the binding signal (log2 normalized fluorescence) turned out to be 0.36. For the sequence TGAGCATGGGTA, the binding signal (log2 normalized fluorescence) amounted to 0.371. The value for TGAGTGAATGTA was 0.0548; that for TGATCCCATGTA was 0.149; that for TGACTAACAGTA was 0.0855. The value for TGAATACAAGTA was 0.136; that for TGACTCAATGTA was 0.121.

Regarding TGACCGGCTGTA, the binding signal (log2 normalized fluorescence) was 0.152. On to TAACACATGGTA, for which the binding signal (log2 normalized fluorescence) was 0.6. In the case of TGAGTATCGGTA it was -0.274.

For TGAGGATTCGTA, the binding signal (log2 normalized fluorescence) is -0.123. In the case of TGAGGGCTAGTA it was -0.0338; in that of TGATCGCGGGTA, -0.0139. For the sequence TGAGATTCGGTA, the binding signal (log2 normalized fluorescence) was -0.225.

As for TGAGTAACAGTA, the binding signal (log2 normalized fluorescence) is -0.0818. The value for TGCCGCGTGGTA was 0.764; that for TGATTTTATGTA was -0.0404. In the case of TGAGAGACGGTA it was -0.00994; in that of TGAACAGCCGTA, 0.0392. In the case of TGATCGAAGGTA it was -0.225.

Consider TGAAGTTGGGTA, for which the binding signal (log2 normalized fluorescence) was -0.198. The value for TGAAGCCATGTA was 0.311. For the sequence TGAGCTCCGGTA, the binding signal (log2 normalized fluorescence) was -0.109. TGATCTAATGTA: the binding signal (log2 normalized fluorescence) was -0.00321.

With TCGAACGTGGTA, the binding signal (log2 normalized fluorescence) was 0.51. As for TGACAACTTGTA, the binding signal (log2 normalized fluorescence) was found to be 0.122. As for TGAGCCGGAGTA, the binding signal (log2 normalized fluorescence) is -0.288. In the case of TGATCGCAGGTA it was -0.0948; in that of TGACACGTGAGC, 0.713. Take TGAGTTTACGTA: the binding signal (log2 normalized fluorescence) was -0.0452. As for TGAGCTTTAGTA, the binding signal (log2 normalized fluorescence) was -0.0706.

Take TGATTGTTCGTA: the binding signal (log2 normalized fluorescence) was -0.0465.

For TGATATGGCGTA, the binding signal (log2 normalized fluorescence) was determined as 0.0154. In the case of TGCCACGTTGTA it was 0.496; in that of TGAGTGAAGGTA, -0.0839; in that of TGACTTGGTGTA, 0.0699. Take TGGCTCGTGGTA: the binding signal (log2 normalized fluorescence) stood at 0.282. As to TGAGATTCCGTA, the binding signal (log2 normalized fluorescence) is -0.159.

As for TTCCACGTGGTA, the binding signal (log2 normalized fluorescence) is 0.707.

As for TGACAATATGTA, the binding signal (log2 normalized fluorescence) is 0.32. Take TGAACGTGTGTA: the binding signal (log2 normalized fluorescence) was 0.493. The value for TGATAGATGGTA was 0.047; that for TGACATTTGGTG was 0.186; that for TGATACCTGGTG was -0.154.

TGATGCCCGGTA: the binding signal (log2 normalized fluorescence) was 0.143.

For the sequence TGAGAAAGCGTA, the binding signal (log2 normalized fluorescence) is -0.0364. In the case of TGAGGGTCCGTA it was 0.127; in that of TGAGGTATTGTA, 0.0697. The value for TGATATCGCGTA was 0.164; that for TGAAAAAAAGTA was -0.0264; that for TGAACTTCAGTA was 0.133. The value for TGACATGCGGTA was 0.515; that for TGACACGTGGGG was 1. As for TCATACGTGGAA, the binding signal (log2 normalized fluorescence) was found to be 0.29.

As for TGATACATGGTA, the binding signal (log2 normalized fluorescence) worked out at 0.427. TGAAGTGAGGTA: the binding signal (log2 normalized fluorescence) stood at 0.266. Turning to TGAGTCCGGGTA, the binding signal (log2 normalized fluorescence) was -0.281. Take TGATCCGCAGTA: the binding signal (log2 normalized fluorescence) is -0.0847.

For TGACAGTGAGTA, the binding signal (log2 normalized fluorescence) turned out to be 0.167. Take TGATGATGGGTA: the binding signal (log2 normalized fluorescence) came to 0.0323. The value for TGAAGGTAAGTA was 0.092; that for TGAACGCCCGTA was 0.114; that for TGAGGGACCGTA was 0.0302.

For TGAAGGCGCGTA, the binding signal (log2 normalized fluorescence) is 0.0961. TGAGGGGTGGTA: the binding signal (log2 normalized fluorescence) is 0.636.

As for TGATAGTACGTA, the binding signal (log2 normalized fluorescence) was 0.131. In the case of TGATTGATTGTA it was -0.146; in that of TGAAGTCGCGTA, 0.0145; in that of TGACCTCGAGTA, 0.361. With TGACACGTAAGA, the binding signal (log2 normalized fluorescence) is 0.309. In the case of TGATCCAAGGTA, the binding signal (log2 normalized fluorescence) worked out at 0.104.

Regarding TGAGCGACCGTA, the binding signal (log2 normalized fluorescence) was found to be 0.193.
